Measured values taken from patent US12043670B2, “Anti-BCMA antibody-drug conjugates and methods of use” (Eisai R&D Management Co., Ltd., priority 2020, dated 2024).

Assay: ThermoFluor thermostability (Tm)
Type: physicochemical
Details: Fab fragment; heavy chain clone paired with light chain AB200-(2Vk8)

Row | Molecule | Tm
1 | AB200-(2Vk8)_R2-CDR2-hs-v2 (antibody) heavy: QVQLVQSGAEVKKPGSSVKVSCKASGGSFSNYWIHWVRQAPGQGLEWMGGIIPIFGTANYAQKFQGRVTITADKSTSTAYMELSSLRSEDTAVYYCARGAIFHGYDVIDNWGQGTLVTVSSASTKGPSVFPLAPSSKSTSGGTAALGCLVKDYFPEPVTVSWNSGALTSGVHTFPAVLQSSGLYSLSSVVTVPSSSLGTQTYICNVNHKPSNTKVDKKVEPKSC light: DIQMTQSPSSLSASVGDRVTITCRASQSISSYINWYQQKPGKAPKLLIYATSNLQIGVPSRFSGSGSGTDFTLTISSLQPEDFATYYCQQFRKLPWSFGQGTKLEIKRTVAAPSVFIFPPSDEQLKSGTASVVCLLNNFYPREAKVQWKVDNALQSGNSQESVTEQDSKDSTYSLSSTLTLSKADYEKHKVYACEVTHQGLSSPVTKSFNRGEC | 85.175 °C

Same assay, conditions: Fab fragment; heavy chain clone paired with light chain AB200-(2Vk31)

Row | Molecule | Tm
2 | AB200-(2Vk31)_R2-VH-v29 (antibody) heavy: QVQLVQSGAEVKKPGSSVKVSCKASGGTFSNYWIHWVRQAPGQGLEWMGATYRSHSTTYYNEKFKSRVTITADKSTSTAYMELSSLRSEDTAVYYCARGAIYHGFDVIDNWGQGTLVTVSSASTKGPSVFPLAPSSKSTSGGTAALGCLVKDYFPEPVTVSWNSGALTSGVHTFPAVLQSSGLYSLSSVVTVPSSSLGTQTYICNVNHKPSNTKVDKKVEPKSC light: DIQMTQSPSSLSASVGDRVTITCRASQSISSYLNWYQQKPGKAPKLLIYATSNLQIGVPSRFSGSGSGTDFTLTISSLQPEDFATYYCQQFRRLPWTFGQGTKLEIKRTVAAPSVFIFPPSDEQLKSGTASVVCLLNNFYPREAKVQWKVDNALQSGNSQESVTEQDSKDSTYSLSSTLTLSKADYEKHKVYACEVTHQGLSSPVTKSFNRGEC | 85.764 °C
3 | AB200-(2Vk31)_R2-VH-v3 (antibody) heavy: QVQLVQSGAEVKKPGSSVKVSCKASGGTFTNYWIHWVRQAPGQGLEWMGGTYRSHSTTYYNQKFKSRVTITADKSTSTAYMELSSLRSEDTAVYYCARGAVYHGYDVIDNWGQGTLVTVSSASTKGPSVFPLAPSSKSTSGGTAALGCLVKDYFPEPVTVSWNSGALTSGVHTFPAVLQSSGLYSLSSVVTVPSSSLGTQTYICNVNHKPSNTKVDKKVEPKSC light: DIQMTQSPSSLSASVGDRVTITCRASQSISSYLNWYQQKPGKAPKLLIYATSNLQIGVPSRFSGSGSGTDFTLTISSLQPEDFATYYCQQFRRLPWTFGQGTKLEIKRTVAAPSVFIFPPSDEQLKSGTASVVCLLNNFYPREAKVQWKVDNALQSGNSQESVTEQDSKDSTYSLSSTLTLSKADYEKHKVYACEVTHQGLSSPVTKSFNRGEC | 85.949 °C
4 | AB200-(2Vk31)_R2-VH-v33 (antibody) heavy: QVQLVQSGAEVKKPGSSVKVSCKASGGTFSNYWIHWVRQAPGQGLEWMGATYRSHSDTNYNEKFKSRVTITADKSTSTAYMELSSLRSEDTAVYYCARGAIYHGYDVIENWGQGTLVTVSSASTKGPSVFPLAPSSKSTSGGTAALGCLVKDYFPEPVTVSWNSGALTSGVHTFPAVLQSSGLYSLSSVVTVPSSSLGTQTYICNVNHKPSNTKVDKKVEPKSC light: DIQMTQSPSSLSASVGDRVTITCRASQSISSYLNWYQQKPGKAPKLLIYATSNLQIGVPSRFSGSGSGTDFTLTISSLQPEDFATYYCQQFRRLPWTFGQGTKLEIKRTVAAPSVFIFPPSDEQLKSGTASVVCLLNNFYPREAKVQWKVDNALQSGNSQESVTEQDSKDSTYSLSSTLTLSKADYEKHKVYACEVTHQGLSSPVTKSFNRGEC | 81.852 °C
5 | AB200-(2Vk31)_R2-VH-v34 (antibody) heavy: QVQLVQSGAEVKKPGSSVKVSCKASGGTFSNYWIHWVRQAPGQGLEWMGATYRSQSDTYYAQKFKSRVTITADKSTSTAYMELSSLRSEDTAVYYCARGAIYHGYDVIENWGQGTLVTVSSASTKGPSVFPLAPSSKSTSGGTAALGCLVKDYFPEPVTVSWNSGALTSGVHTFPAVLQSSGLYSLSSVVTVPSSSLGTQTYICNVNHKPSNTKVDKKVEPKSC light: DIQMTQSPSSLSASVGDRVTITCRASQSISSYLNWYQQKPGKAPKLLIYATSNLQIGVPSRFSGSGSGTDFTLTISSLQPEDFATYYCQQFRRLPWTFGQGTKLEIKRTVAAPSVFIFPPSDEQLKSGTASVVCLLNNFYPREAKVQWKVDNALQSGNSQESVTEQDSKDSTYSLSSTLTLSKADYEKHKVYACEVTHQGLSSPVTKSFNRGEC | 81.638 °C
6 | AB200-(2Vk31)_R2-VH-v42 (antibody) heavy: QVQLVQSGAEVKKPGSSVKVSCKASGGTFTNYWIHWVRQAPGQGLEWMGGTYRIHSDTYYNQKYKSRVTITADKSTSTAYMELSSLRSEDTAVYYCARGAIFHGYDVIDNWGQGTLVTVSSASTKGPSVFPLAPSSKSTSGGTAALGCLVKDYFPEPVTVSWNSGALTSGVHTFPAVLQSSGLYSLSSVVTVPSSSLGTQTYICNVNHKPSNTKVDKKVEPKSC light: DIQMTQSPSSLSASVGDRVTITCRASQSISSYLNWYQQKPGKAPKLLIYATSNLQIGVPSRFSGSGSGTDFTLTISSLQPEDFATYYCQQFRRLPWTFGQGTKLEIKRTVAAPSVFIFPPSDEQLKSGTASVVCLLNNFYPREAKVQWKVDNALQSGNSQESVTEQDSKDSTYSLSSTLTLSKADYEKHKVYACEVTHQGLSSPVTKSFNRGEC | 81.487 °C
7 | AB200-(2Vk31)_R2-VH-v47 (antibody) heavy: QVQLVQSGAEVKKPGSSVKVSCKASGGTYSNYWIHWVRQAPGQGLEWMGATYRIHSTTYYNEKFKSRVTITADKSTSTAYMELSSLRSEDTAVYYCARGAIFHGYDVIDNWGQGTLVTVSSASTKGPSVFPLAPSSKSTSGGTAALGCLVKDYFPEPVTVSWNSGALTSGVHTFPAVLQSSGLYSLSSVVTVPSSSLGTQTYICNVNHKPSNTKVDKKVEPKSC light: DIQMTQSPSSLSASVGDRVTITCRASQSISSYLNWYQQKPGKAPKLLIYATSNLQIGVPSRFSGSGSGTDFTLTISSLQPEDFATYYCQQFRRLPWTFGQGTKLEIKRTVAAPSVFIFPPSDEQLKSGTASVVCLLNNFYPREAKVQWKVDNALQSGNSQESVTEQDSKDSTYSLSSTLTLSKADYEKHKVYACEVTHQGLSSPVTKSFNRGEC | 82.826 °C
8 | AB200-(2Vk31)_R2-VH-v5 (antibody) heavy: QVQLVQSGAEVKKPGSSVKVSCKASGGTFTNYWIHWVRQAPGQGLEWMGGTYRSHSDTYYNEKFKSRVTITADKSTSTAYMELSSLRSEDTAVYYCARGAIFHGYDVIDNWGQGTLVTVSSASTKGPSVFPLAPSSKSTSGGTAALGCLVKDYFPEPVTVSWNSGALTSGVHTFPAVLQSSGLYSLSSVVTVPSSSLGTQTYICNVNHKPSNTKVDKKVEPKSC light: DIQMTQSPSSLSASVGDRVTITCRASQSISSYLNWYQQKPGKAPKLLIYATSNLQIGVPSRFSGSGSGTDFTLTISSLQPEDFATYYCQQFRRLPWTFGQGTKLEIKRTVAAPSVFIFPPSDEQLKSGTASVVCLLNNFYPREAKVQWKVDNALQSGNSQESVTEQDSKDSTYSLSSTLTLSKADYEKHKVYACEVTHQGLSSPVTKSFNRGEC | 83.838 °C
9 | AB200-(2Vk31)_R2-VH-v50 (antibody) heavy: QVQLVQSGAEVKKPGSSVKVSCKASGGTYSNYWIHWVRQAPGQGLEWMGGTYRIHSDTNYNQKFKSRVTITADKSTSTAYMELSSLRSEDTAVYYCARGAIYHGYDVIENWGQGTLVTVSSASTKGPSVFPLAPSSKSTSGGTAALGCLVKDYFPEPVTVSWNSGALTSGVHTFPAVLQSSGLYSLSSVVTVPSSSLGTQTYICNVNHKPSNTKVDKKVEPKSC light: DIQMTQSPSSLSASVGDRVTITCRASQSISSYLNWYQQKPGKAPKLLIYATSNLQIGVPSRFSGSGSGTDFTLTISSLQPEDFATYYCQQFRRLPWTFGQGTKLEIKRTVAAPSVFIFPPSDEQLKSGTASVVCLLNNFYPREAKVQWKVDNALQSGNSQESVTEQDSKDSTYSLSSTLTLSKADYEKHKVYACEVTHQGLSSPVTKSFNRGEC | 79.146 °C
10 | AB200-(2Vk31)_R2-VH-v57 (antibody) heavy: QVQLVQSGAEVKKPGSSVKVSCKASGGTFSNYWIHWVRQAPGQGLEWMGGTYRIHSTTYYNQKFKSRVTITADESTSTAYMELSSLRSEDTAVYYCARGAVYHGYDVIDNWGQGTLVTVSSASTKGPSVFPLAPSSKSTSGGTAALGCLVKDYFPEPVTVSWNSGALTSGVHTFPAVLQSSGLYSLSSVVTVPSSSLGTQTYICNVNHKPSNTKVDKKVEPKSC light: DIQMTQSPSSLSASVGDRVTITCRASQSISSYLNWYQQKPGKAPKLLIYATSNLQIGVPSRFSGSGSGTDFTLTISSLQPEDFATYYCQQFRRLPWTFGQGTKLEIKRTVAAPSVFIFPPSDEQLKSGTASVVCLLNNFYPREAKVQWKVDNALQSGNSQESVTEQDSKDSTYSLSSTLTLSKADYEKHKVYACEVTHQGLSSPVTKSFNRGEC | 85.597 °C

Same assay, conditions: Fab fragment; heavy chain clone paired with light chain AB200-(2Vk35)

Row | Molecule | Tm
11 | AB200-(2Vk35)_R2-VH-v8 (antibody) heavy: QVQLVQSGAEVKKPGSSVKVSCKASGGTYSNYWIHWVRQAPGQGLEWMGGTYRSQSDTYYNQKFKSRVTITADKSTSTAYMELSSLRSEDTAVYYCARGAIYHGFDVIDNWGQGTLVTVSSASTKGPSVFPLAPSSKSTSGGTAALGCLVKDYFPEPVTVSWNSGALTSGVHTFPAVLQSSGLYSLSSVVTVPSSSLGTQTYICNVNHKPSNTKVDKKVEPKSC light: DIQMTQSPSSLSASVGDRVTITCRASQSISSYINWYQQKPGKAPKLLIYATSNLQSGVPSRFSGSGSGTDFTLTISSLQPEDFATYYCQQYRRIPWTFGQGTKLEIKRTVAAPSVFIFPPSDEQLKSGTASVVCLLNNFYPREAKVQWKVDNALQSGNSQESVTEQDSKDSTYSLSSTLTLSKADYEKHKVYACEVTHQGLSSPVTKSFNRGEC | 78.223 °C
12 | AB200-(2Vk35)_R2-VH-v9 (antibody) heavy: QVQLVQSGAEVKKPGSSVKVSCKASGGTYSNYWIHWVRQAPGQGLEWMGATYRSQSDTNYNQKFKSRVTITADKSTSTAYMELSSLRSEDTAVYYCARGAIYHGFDVIDNWGQGTLVTVSSASTKGPSVFPLAPSSKSTSGGTAALGCLVKDYFPEPVTVSWNSGALTSGVHTFPAVLQSSGLYSLSSVVTVPSSSLGTQTYICNVNHKPSNTKVDKKVEPKSC light: DIQMTQSPSSLSASVGDRVTITCRASQSISSYINWYQQKPGKAPKLLIYATSNLQSGVPSRFSGSGSGTDFTLTISSLQPEDFATYYCQQYRRIPWTFGQGTKLEIKRTVAAPSVFIFPPSDEQLKSGTASVVCLLNNFYPREAKVQWKVDNALQSGNSQESVTEQDSKDSTYSLSSTLTLSKADYEKHKVYACEVTHQGLSSPVTKSFNRGEC | 76.997 °C
